# This is one part of the list. Antibody binding of pooled human sera (four to six donors per pool; dilution not stated) to peptides of the Trypanosoma cruzi antigen TSSA on microarrays. Quantile-normalised fluorescence in arbitrary units, mean of duplicate arrays; higher = more binding. No active / inactive call. The uninfected pools are read here as the healthy donors of the same country. The strongest signals lie near the top of the scale (about 60,000).
# Experiments:
# Assay in all cases: antibody binding signal (normalised fluorescence) (arbitrary fluorescence units); higher = stronger serum antibody binding to peptide
# [1] = test system: pooled sera of chronic Chagas disease patients, Bolivia
# Description: (§1)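 Microarray of 15-residue peptides over residues 30-55 of Trypanosoma cruzi TSSAII, each with 1 to 10 substitutions at naturally variable positions, probed with one serum pool per country.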
# [2] = test system: pooled sera of chronic Chagas disease patients, Brazil
# Description: as §1
# [3] = test system: pooled sera of chronic Chagas disease patients, Colombia
# Description: as §1
# [4] = test system: pooled sera of chronic Chagas disease patients, Mexico
# Description: as §1
# [5] = test system: pooled sera of chronic Chagas disease patients, USA
# Description: as §1
# [6] = test system: pooled sera of uninfected people, Argentina
# Description: as §1
# [7] = test system: pooled sera of uninfected people, Bolivia
# Description: as §1
# [8] = test system: pooled sera of uninfected people, Brazil
# Description: as §1
# [9] = test system: pooled sera of uninfected people, Colombia
# Description: as §1
# [10] = test system: pooled sera of uninfected people, Mexico
# Description: as §1
# [11] = test system: pooled sera of uninfected people, USA
# Description: as §1
Sequence,antibody binding signal [1],antibody binding signal [2],antibody binding signal [3],antibody binding signal [4],antibody binding signal [5],antibody binding signal [6],antibody binding signal [7],antibody binding signal [8],antibody binding signal [9],antibody binding signal [10],antibody binding signal [11]
KDKKPAAGEAPSPPG,209,8140,147,227,11700,122,97.3,93.3,83.4,77.4,76.9
GKDKKPATGETPSQP,3260,32400,1630,2270,19600,205,174,136,133,567,106
GKENKAAAGGAPSPP,287,5130,5140,2470,11700,352,86.5,91.9,122,122,132
KENKTATGETPSQPG,1400,34100,783,249,8070,159,343,233,240,245,244
KKTAAGGAPSQPGAS,904,419,4580,300,271,290,178,126,176,171,246
GKDNKTAAGGAPSQS,187,241,3190,581,478,147,128,137,180,84.6,136
DNKPATGGAPSQSGA,13700,6340,316,527,2650,283,903,533,260,244,192
SGKDKKPAAGGAPSQ,235,376,2510,935,954,112,105,112,526,73.3,85.8
TENKAATGETPSQSG,4220,24400,180,199,12900,126,239,174,103,210,131
DNKPAAGGTPSQSGA,625,747,1370,309,289,217,556,1500,351,504,135
GTENKTATGETPSPS,7750,2140,1540,2090,7790,135,346,148,217,390,2030
SGTEKKPAAGEAPSQ,12200,15700,1100,1180,14600,93.5,662,477,94.9,281,465
DKKAAAGEAPSPSGA,207,3510,413,374,10700,246,115,113,81.6,82.4,130
DKKAAAGGTPSQSGA,222,217,4620,381,1470,133,148,2560,150,217,153
GKENKAATGGTPSPS,564,9490,6240,6750,15500,370,94.8,136,142,89.7,125
GTENKPAAGGAPSPP,3830,6960,1440,1520,1480,418,1580,546,203,238,163
KKPATGETPSPPGAS,4690,21300,157,235,16800,435,732,104,233,512,788
KAATGEAPSPPGASS,26000,29300,338,200,21200,283,140,129,118,109,136
TDNKAATGETPSQSG,4680,23900,109,212,13000,98.2,342,206,106,225,90.6
NKPATGGTPSPSGAS,1150,5190,330,687,330,647,1450,737,586,259,1340
GTENKAAAGETPSPS,682,5310,1060,1600,3880,133,407,113,146,287,1930
NKTATGGAPSPPGAS,385,2110,838,404,1110,825,1310,293,615,231,1600
TDNKTATGGTPSPPG,854,506,390,287,487,242,217,390,343,167,133
TSSTPPSGTEKKAAT,12100,32800,470,18900,2870,1160,446,144,170,126,213
SGTDNKPAAGGTPSP,1420,45200,3970,350,398,163,983,1060,662,440,236

Sequence,antibody binding signal [1],antibody binding signal [2],antibody binding signal [3],antibody binding signal [4],antibody binding signal [5],antibody binding signal [6],antibody binding signal [7],antibody binding signal [8],antibody binding signal [9],antibody binding signal [10],antibody binding signal [11]
DNKTAAGGTPSQPGA,307,1640,5620,354,1440,370,355,1410,389,2790,194
KEKKAATGETPSPSG,326,2480,167,188,7080,360,104,93.9,225,122,999
KENKAATGGAPSPPG,423,1760,289,255,1980,313,124,124,112,96.8,232
KDNKTATGGAPSPSG,233,247,1760,232,356,342,130,153,186,114,138
SSTPPSGTENKTAAG,53400,60000,395,8240,29400,4770,532,511,893,526,746
GKDNKAAAGGAPSPP,183,280,1240,709,801,157,290,97,159,83.1,122
SGTENKAATGEAPSP,41100,36800,188,184,32500,555,343,161,158,123,83.4
PPSGTDNKAAAGGAP,41500,49300,3180,2770,5130,1120,845,1800,817,369,732
GKENKAAAGGTPSQS,395,9390,7280,5120,14600,323,84.9,306,139,121,94.9
KDNKPAAGGTPSPPG,191,174,865,149,225,225,253,464,289,129,109
PSGKENKTAAGGAPS,1500,10900,15900,12700,9360,5840,1800,788,503,323,192
DNKPATGGTPSPSGA,1310,1220,264,401,448,353,510,735,496,286,159
SGKDNKAAAGEAPSP,335,13700,1880,1110,11200,302,317,140,563,83.5,116
SGKENKAATGGAPSP,569,18300,6970,4580,19900,6140,1640,86.1,346,201,200
KDNKTAAGEAPSQPG,6820,34900,1980,240,6040,479,220,184,255,94.6,161
TEKKPATGGAPSQSG,852,3250,1820,2480,2540,343,1250,275,239,208,1030
KKTAAGGAPSPSGAS,270,333,3820,471,378,223,114,130,216,107,213
DNKTAAGETPSPSGA,283,609,350,348,1270,159,281,225,174,270,514
PSGKDKKTATGETPS,736,2770,1920,2010,7220,208,219,105,116,92.7,117
TENKAAAGGTPSQSG,243,276,3030,413,1150,166,158,1620,283,228,157
PPSGKEKKAAAGEAP,607,2450,2000,5690,6300,407,496,112,234,92,157
SGTENKTAAGGAPSQ,6950,12400,6880,766,3310,560,534,419,348,474,227
GTENKPAAGGTPSQS,3520,5690,1260,2050,963,467,2130,1280,393,584,215
GKEKKAATGGAPSQS,207,501,3870,3800,2950,223,112,102,244,84.8,134

# Source: the supplement of paper PMC10441789
